Data published in PubChem BioAssay AID463173 (ICCB-Longwood Screening Facility, Harvard Medical School, 2010).
Hit rate of the full screen: of about 52,000 compounds, about 4,300 (8.3%) were called active. Cut-off read from the data, not from the text of the source: active = survival mostly below about 52% (no sharp cut-off); inactive = mostly above about 56%. Some of the results follow.

These molecules were tested on DeltatarO mutant (assay: growth inhibition of S. aureus wild type versus tarO mutant, primary screen, teichoic acid synthesis inhibitors, RN4220, OD600 (AID 463173)). Details: OD600, 18 h, stronger effect = lower value, screened at 18.75 µg/mL (by protocol).

SMILES | survival
COc1ccc(S(=O)(=O)c2nnn(-c3ccc(C(C)C)cc3)c2C)cc1 | inactive: 74%
Cc1[nH]c2ccc(-c3nnc(SCC(=O)N4c5ccccc5CCc5ccccc54)o3)cc2c1C | inactive: 89%
CCOc1ccc(NC(=O)Cn2c(=O)n(CCCCC(=O)NCc3ccc4c(c3)OCO4)c(=O)c3ccccc32)cc1 | inactive: 85%
CCN(CC)c1ccc(-n2nc3cc(C)c(NC(=O)c4ccccc4C)cc3n2)c(C)c1 | inactive: 73%
CCc1ccc(S(=O)(=O)NCc2nc3cccnc3n2Cc2cccc(OC)c2)cc1 | inactive: 88%
CCCCCn1c(CNC(=O)c2ccccc2)nc2ccccc21 | inactive: 67%
O=C(CN1C(=O)CSc2ccc(S(=O)(=O)N3CCOCC3)cc21)NCCCN1CCCCC1 | inactive: 94%
Cc1ccc(N(CC(=O)N2CCN(c3ccccc3)CC2)S(=O)(=O)c2c(C)noc2C)cc1 | inactive: 70%
Cc1nc(-c2ccc(F)cc2)sc1CCNC(=O)c1cccs1 | inactive: 129%
CCc1ccc(NC(=O)Cn2c(=O)n(-c3ccccc3C)c(=O)c3c2c2cc(OC)ccc2n3C)cc1 | inactive: 67%
COc1ccc(NC(=O)CSc2nc3ccccc3nc2N2CCCCC2)cc1 | active: 18%
CN1CCN(c2nc3c(S(=O)(=O)c4ccc(Cl)cc4)nnn3c3ccsc23)CC1 | inactive: 39%
CC(=O)Nc1ccc(C)cc1-c1nc2ccccc2n(CC(=O)c2ccc(C)c(C)c2)c1=O | inactive: 68%
O=C(NCCc1csc(-c2ccc(C(F)(F)F)cc2)n1)C(=O)Nc1ccc(F)c(Cl)c1 | inactive: 103%
CCOc1ccccc1NS(=O)(=O)c1ccc(N2CCCCS2(=O)=O)cc1 | inactive: 97%
CCOC(=O)c1c(N)n(-c2ccc(CC)cc2)c2nc3ccccc3nc12 | inactive: 98%
O=C(CCSCCc1ccccn1)Nc1ccc(Cl)cc1 | active: 47%
O=C(Nc1ccc(Br)cc1)c1cc(S(=O)(=O)NC2CCCC2)ccc1F | inactive: 81%
CCN(c1ccccc1)S(=O)(=O)c1nnc(NC(=O)C2CCCCC2)s1 | active: 48%

SMILES | survival
COc1ccc2c(c1)c(N1CCCC1=O)c(C(=O)Nc1cc(C)c(Cl)cc1OC)n2C | inactive: 87%
CCn1c(=O)c2sccc2n2c(CCC(=O)Nc3ccc(F)cc3)nnc12 | inactive: 82%
CCc1ccc2[nH]c(=O)c(CN(Cc3ccco3)C(=S)NCC(C)C)cc2c1 | inactive: 56%
Cc1ccc2c(c1)cc1c(=O)n(Cc3ccccc3Cl)nc(C)n12 | inactive: 96%
O=C(COCC(=O)N1CCCC1)N1CCCC1 | inactive: 75%
CCOC(=O)c1ccccc1NC(=O)N1CCC(CN2CCOCC2)CC1 | inactive: 62%
CCOc1ccc(NC(=O)Cn2nc3c(cc2=O)CC(C)CC3)cc1 (stereo unspecified) | inactive: 98%
CCOC(=O)c1[nH]c2c(c1Cc1ccccc1)C(=O)CC(c1ccccc1)C2 (stereo unspecified) | inactive: 64%
CCN1CCN(C(c2ccccc2Cl)c2sc3nc(-c4ccco4)nn3c2O)CC1 (stereo unspecified) | inactive: 92%
Cc1ccc(-c2noc(-c3nnn(CC(=O)Nc4ccc(C)c(Cl)c4)c3N)n2)cc1 | inactive: 89%
CC(C)Oc1ccc(C(=O)NCC(c2ccc(N(C)C)cc2)N2CCc3ccccc32)cc1 (stereo unspecified) | inactive: 91%
CCNC(=O)CC1C(=O)N(c2ccc(C)cc2)C(=O)N1CCOC (stereo unspecified) | inactive: 81%
COC(=O)C1=NN(C(=O)c2cccc(OC)c2)C(C)(O)C1 (stereo unspecified) | inactive: 104%
O=C(CSc1nnc(-c2ccccc2)o1)c1ccc2c(c1)OCCO2 | inactive: 83%
COc1ccc(CNC(=O)CN2C(=O)CCn3nc(-c4cn(C)c5ccccc45)cc32)cc1 | inactive: 96%
COc1ccc(-c2onc(C)c2C)cc1S(=O)(=O)NCCc1ccccc1 | inactive: 90%
Oc1c(C(c2ccccc2)N2CCCC2)sc2nc(-c3ccco3)nn12 (stereo unspecified) | active: 0%
CCOC(=O)Cc1ccc(NC(=O)NC(C)c2c(-n3cccc3)sc(C)c2C)cc1 (stereo unspecified) | inactive: 61%
COc1cc(-n2c(=O)c3ccccc3n(Cc3cccc(Cl)c3)c2=O)cc(OC)c1OC | inactive: 87%

SMILES | survival
CCOC(=O)c1c(C)[nH]c(CCC(=O)NCc2cc(OC)c(OC)c(OC)c2)c1C | inactive: 88%
COc1ccc(CCN2C(=O)N(c3cccc(OC)c3)C(=O)C2CC(=O)Nc2ccccc2)cc1 (stereo unspecified) | inactive: 101%
Cc1cc2oc(=O)c(CC(=O)O)c(C)c2c2occ(-c3ccccc3)c12 | inactive: 53%
Cc1ccc(C)c(Cn2c(=O)n(-c3ccccc3)c(=O)c3c4c(sc32)CCCC4)c1 | inactive: 120%
CCN(CC)C(=S)NC(=O)C12CC3CC(CC(C3)C1)C2 | inactive: 87%
CCC(=O)N1c2ncnn2C2(CCCCC2)[C@@H]2CCCC[C@@H]21 | inactive: 111%
CCn1nc(C)c2c(-c3ccccc3)cc(=O)n(C(C)C(=O)NCCc3ccc(Cl)cc3)c21 (stereo unspecified) | inactive: 87%
O=S(=O)(c1ccc(-c2cnc(C3CC3)o2)cc1)N1CCN(c2ccc(F)cc2)CC1 | inactive: 86%
CCOc1ccc(NC(=O)CCCn2c(C)c3cnn(-c4ccccc4)c(=O)c3c2C)cc1 | inactive: 98%
O=C(NC(NC1CCS(=O)(=O)C1)C(=O)c1ccc(Cl)cc1)c1ccco1 (stereo unspecified) | inactive: 84%
CCOc1cccc(CNCCCSc2nnnn2C)c1 | inactive: 62%
COc1ccc(OC)c(NC(=O)CSC2=Nc3ccccc3C3=NC(CC(=O)NCCc4ccccc4)C(=O)N23)c1 (stereo unspecified) | inactive: 77%
O=C(c1ccc2c(c1)N(Cc1cccc(Cl)c1)C(=O)c1ccccc1S2=O)N1CCC(Cc2ccccc2)CC1 (stereo unspecified) | inactive: 124%
O=C(c1cccc([N+](=O)[O-])c1)N1CCN(c2ccc(Nc3ccccc3)nn2)CC1 | inactive: 88%
COc1nnc(-c2ccc(N3CCCCC3)c(NC(=O)c3ccc(C)cc3)c2)c2ccccc12 | active: 26%
CCOC(=O)c1c(S(=O)(=O)N2CCC(C(=O)Nc3ccc(C)c(Cl)c3)CC2)c(C)n(C)c1C | inactive: 83%
COc1ccccc1N1CCN(C(=O)C2CCN(S(=O)(=O)c3cn(C)cn3)CC2)CC1 | active: 46%
COc1cccc(-c2cn3c(n2)sc2cc(C(=O)NC4CCCCC4)ccc23)c1 | inactive: 68%
